According to paper PMC4752459:
Results are given in words; binding and its absence hold for the method and conditions named. Binding seen in cells or lysates may run through a third protein. Some entries that bind do so weakly or less than the wild type.

T1: Shs1-CCG (S. cerevisiae) (UniProt Q07657)
T1 sequence: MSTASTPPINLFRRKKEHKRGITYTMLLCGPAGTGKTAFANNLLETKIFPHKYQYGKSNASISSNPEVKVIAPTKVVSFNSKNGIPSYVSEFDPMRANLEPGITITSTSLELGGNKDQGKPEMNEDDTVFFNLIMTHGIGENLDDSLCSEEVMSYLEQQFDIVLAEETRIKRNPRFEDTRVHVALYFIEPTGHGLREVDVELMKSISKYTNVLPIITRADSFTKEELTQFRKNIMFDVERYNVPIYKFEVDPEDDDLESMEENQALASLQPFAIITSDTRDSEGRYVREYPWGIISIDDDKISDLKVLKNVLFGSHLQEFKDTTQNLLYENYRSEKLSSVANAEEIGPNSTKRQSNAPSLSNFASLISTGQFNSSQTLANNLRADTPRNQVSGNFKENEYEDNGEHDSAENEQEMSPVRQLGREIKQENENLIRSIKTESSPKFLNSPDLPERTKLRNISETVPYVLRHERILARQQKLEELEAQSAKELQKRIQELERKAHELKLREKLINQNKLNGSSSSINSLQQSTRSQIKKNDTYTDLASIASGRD


Biological target: T1, Shs1-CCG (S. cerevisiae)
Experiment: split reporter; steady-state SPLIFF (split-ubiquitin, mCherry-Cub-GFP): diploid cells with Shs1-CCG and a Nub fusion, 100 μM Cu2+, GFP/mCherry ratio at the bud neck; strong > 70%, weak > 30%, below 30% CCG to CC conversion non-interacting

binding | Binder
binds weakly | Nub-Syp1 (protein, UniProt P25623 1-870) MTEQRTKYADSILTTKSPYEATETIRIRLSQVKLLNKDFYLLFKELANLKRNYAQQLRKIIAENEDITKILNAQMIESNVLTPQEMSAFRFNSLGELRNVWDTVIEELKSDLKSSTEYYNTLDQQVVRELKESVENNTSWRESKDLHSKLSKNAASIEHYSKNNENSSHLEEARRQWDQQSPYLFELFETIDYNRLDTLKNCMLRFQTSFSDYLLNTTKECETVMTKFLAFEPQSEIDRFAKDASQYNFQLSSSSKEVVPNNASPASATGARPVSVSNGAANTEREKKSPQKDKRKSAFGNIGHRLASASSSLTHNDLMNNEFSDSTNNSSLKSKKSSHTLRSKVGSIFGRNKTKNKRQQQSSSNSHIQASITETPNNSSTRVSSTATSSIYQKQRRPTYSSSKSNNWTPGEASDTPPLPPHATPKNVDAPVTADTPPAQTFTPSEVPPSTPQQSSPPTAKEPDSSNLPKTVPISISQPPLQPQSKTKPLPVEPASPSISLPTATVDNQPSGQVDSRPLHIRAPALPPSRKQNFIHNRDSQLYDSLPNHGSGATPTSSSLSSIPQERPVSTLSSQITGELRELNPQATGSSTSLVGQSLFQHSSLDTSQFGLNASIAEVLNASFKDGMLQNSQLIGEIALNYLPNSVMNSPLPIGINLRINNGAKFEKVILNQAFIERVAPEEFKVNPSFIDSRTLGAIKYSIKEPIAPIVIHPVWRFESHQASVVLTVKMSPSLPDEISQIVIEDLVVFVNIDGANATSALSKPQGSFSKEKKRITWRFKEPVVLTRNGEGQRLIARFITDGLAHESAKGVITKFTISETDNVALPHSGAGSGITLTCQELDENNPFGGEWLDVNTKRTLTTGNYHGLA
binds | Nub-Gin4 (protein, UniProt Q12263 1-1142) MAINGNSIPAIKDNTIGPWKLGETLGLGSTGKVQLARNGSTGQEAAVKVISKAVFNTGNVSGTSIVGSTTPDALPYGIEREIIIMKLLNHPNVLRLYDVWETNTDLYLVLEYAEKGELFNLLVERGPLPEHEAIRFFRQIIIGVSYCHALGIVHRDLKPENLLLDHKYNIKIADFGMAALETEGKLLETSCGSPHYAAPEIVSGIPYQGFASDVWSCGVILFALLTGRLPFDEEDGNIRTLLLKVQKGEFEMPSDDEISREAQDLIRKILTVDPERRIKTRDILKHPLLQKYPSIRDSKSIRGLPREDTYLTPLSESNSSIDATILQNLVILWHGRDPEGIKEKLREPGANAEKTLYALLYRFKCDTQKELIKQQQVKKRQSISSVSVSPSKKVSTTPQRRRNRESLISVTSSRKKPISFNKFTASSASSSNLTTPGSSKRLSKNFSSKKKLSTIVNQSSPTPASRNKRASVINVEKNQKRASIFSTTKKNKRSSRSIKRMSLIPSMKRESVTTKLMSTYAKLAEDDDWEYIEKETKRTSSNFATLIDEIFEYEKYEQIRKEKEELERKVREAKAREELERRRRKQEEKERARKLLEKEDLKRKQEELKKQIEIDISDLEQELSKHKEEKLDGNIRSISAPMENEEKNINHLEVDIDNILRRRNFSLQTRPVSRLDPGIMFSSPTEEVSPVEPKRTENERLTTEKKILETIRRSKFLGSSFNIDKELKLSKMEYPSIIAPQRLSEERVVSDSNDGYESLILPKDGNGVSQLKDSTATTAPVSDGRLRKISEIRVPQFTRKSRHFSESNKRLSVLSMYSTKESFTNLVDILKNGNLDVNNQQSQRIPTPRSADDSEFLFETVNEEAEYTGNSSNDERLYDVGDSTIKDKSALKLNFADRFNGSNEAKQTDNLHLPILPPLNGDNELRKQNSQEGDQAHPKIKSMIPESGSSSHTEKEEENEEKEEKKPEQHKQEEDQEKREKVVDDMEPPLNKSVQKIREKNAGSQAKDHSKDHLKEHKQDKNTAIGNGSFFRKFSKSSDKTMELYAKISAKQLFNGLEKLLRGWTQYGLKNIKSHPNNLTLTGKLSSDNIFSLRSTLFEVNIYPRGKMSVVQFKKVSGSFKAVKKLVNEVENVLNKEGVLQK
